Some of the results follow. These are noisy estimates, calculated here from bound and input reads.
What follows are sequences tested against T1, Pho4 (S. cerevisiae) (UniProt P07270) (assay: relative binding free energy (BET-seq); higher = weaker binding). Details: reference: library average.
T1 sequence: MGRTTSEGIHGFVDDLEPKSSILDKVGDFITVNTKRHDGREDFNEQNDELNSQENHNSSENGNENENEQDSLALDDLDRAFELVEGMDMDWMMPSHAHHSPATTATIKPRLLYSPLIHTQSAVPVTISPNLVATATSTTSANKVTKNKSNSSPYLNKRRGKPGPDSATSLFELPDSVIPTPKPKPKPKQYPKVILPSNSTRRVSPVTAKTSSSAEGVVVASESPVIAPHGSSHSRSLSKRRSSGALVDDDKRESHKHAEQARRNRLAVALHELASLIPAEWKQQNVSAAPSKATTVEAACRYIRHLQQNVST

Row | Sequence | relative binding free energy [kcal/mol]
1 | AGTCGCACGTGCGTTG | 0.01
2 | CGGTTCACGTGCGATG | 0.31
3 | TTGCGCACGTGGATGG | -0.07
4 | CGTGGCACGTGCCGGT | -0.31
5 | AAAATCACGTGGTGTG | 0.07
6 | TTCTCCACGTGGTGTG | 0.07
7 | CAAGGCACGTGGTTTA | -0.14
8 | AGTTACACGTGCTAGG | 0.1
9 | TGAACCACGTGGAGTG | 0.14
10 | AGAGCCACGTGAGTGG | 0.18
11 | TATTGCACGTGTATAA | 0
12 | GCTGGCACGTGGGGCG | -0.24
13 | ATTAACACGTGCAGGG | -0.04
14 | GAAGGCACGTGAGGAT | 0.2
15 | TAAGGCACGTGTAGCT | -0.04
16 | GTCCTCACGTGGGTGG | 0.18
17 | GGTAGCACGTGGCGCG | -0.09
18 | TTAGGCACGTGCATAT | -0.24
19 | GTAGACACGTGTGGTT | 0.18
20 | TCATTCACGTGAGGCG | 0.55
21 | ATTGCCACGTGTGTGT | -0.21
22 | AGAGCCACGTGGTTGG | -0.16
23 | TTTGTCACGTGGCTAA | -0.02

Row | Sequence | relative binding free energy [kcal/mol]
24 | GGTTTCACGTGATACT | 0.18
25 | AAAGTCACGTGTTTTA | 0.06
26 | CTGTGCACGTGAGTGA | 0.24
27 | ATGAGCACGTGGTAAT | -0.16
28 | TTCTGCACGTGTATTG | 0.04
29 | TGAAGCACGTGCGGCG | -0.06
30 | AGTTGCACGTGTTCAT | -0.03
31 | CGTGGCACGTGCGAGT | -0.15
32 | TGTAACACGTGATAGA | 0.13
33 | TGGATCACGTGAGCGG | 0.32
34 | GTGAGCACGTGAATTT | 0.33
35 | GGACGCACGTGGAGGG | -0.09
36 | GGTGGCACGTGGGATA | -0.03
37 | TATTGCACGTGGGGCT | -0.22
38 | GGGACCACGTGGAAGG | 0.1
39 | AAAGTCACGTGTTTGT | -0.01
40 | GAAATCACGTGGTGGA | 0.18
41 | GCGGGCACGTGGTAGA | -0.04
42 | GGTTGCACGTGTTCAA | 0.08
43 | ACAGGCACGTGTTGGT | 0.03
44 | GGAAACACGTGGATGG | -0.01
45 | TGTTACACGTGGGGGG | -0.03
46 | CTTATCACGTGTGCGG | 0.11

Row | Sequence | relative binding free energy [kcal/mol]
47 | GGGGTCACGTGGTTGT | 0.22
48 | GGGGTCACGTGAGTAG | 0.26
49 | AAGGACACGTGTGTGA | 0.1
50 | TTGGCCACGTGAGGCA | 0.33
51 | GTAGCCACGTGTGGAG | -0.05
52 | CTAGTCACGTGGTGTT | 0
53 | ATGGACACGTGGATAG | -0.03
54 | TAATGCACGTGGTAGT | -0.13
55 | TTCGTCACGTGTAGAA | 0.21
56 | TGGTTCACGTGTTGAC | 0.15
57 | TTTGGCACGTGGATCA | -0.07
58 | AGCGACACGTGAAGGG | 0.24
59 | TATTACACGTGGGCAT | -0.07
60 | TTAAACACGTGAATTT | 0.22
61 | GGATGCACGTGTAATA | 0.07
62 | GAAGGCACGTGGGTTT | -0.15
63 | TTCTTCACGTGCGGGG | 0.15
64 | GGAATCACGTGGGGCG | 0.13
65 | GTATTCACGTGTCTGG | 0.37
66 | TGGGTCACGTGTCTTT | 0.21
67 | TGAGACACGTGGTGTG | -0.06
68 | GTAGTCACGTGACAGT | 0.19
69 | TAATTCACGTGGAGCG | 0.38

Row | Sequence | relative binding free energy [kcal/mol]
70 | CTTAGCACGTGAAAGT | 0.31
71 | TTGGCCACGTGTATTG | -0.04
72 | TCTTACACGTGCTGTG | 0.21
73 | TTATTCACGTGATTTT | 0.34
74 | GTGAACACGTGAGAGT | 0.2
75 | GGTAACACGTGCGAGG | -0.05
76 | GATTCCACGTGGGGGG | -0.09
77 | AACAGCACGTGGGGTA | -0.21
78 | GGATGCACGTGGAAAG | 0.05
79 | AGAGACACGTGGATGT | 0.04
80 | TATGTCACGTGTACTT | 0.08
81 | GTCAACACGTGGAGTG | 0.07
82 | ATTTGCACGTGGCGAG | -0.03
83 | CAGGGCACGTGGTGCT | -0.21
84 | AGTATCACGTGGGAAA | 0.09
85 | TGGTCCACGTGGGCTG | -0.06
86 | GTGTTCACGTGAGTAC | 0.35
87 | CTGTACACGTGAGAGG | 0.29
88 | GCGCGCACGTGGAGGT | -0.08
89 | GGGACCACGTGGTGTG | -0.07
90 | CTTGGCACGTGGGAAT | -0.21
91 | TTCTGCACGTGATTGA | 0.06
92 | CGTAGCACGTGATAGT | 0.04

Row | Sequence | relative binding free energy [kcal/mol]
93 | GGGTCCACGTGGTGCG | -0.1
94 | ATCTGCACGTGGTGAT | -0.1
95 | AATGGCACGTGGCAAG | -0.07
96 | TAAAGCACGTGCGGGG | -0.11
97 | TTTGCCACGTGGGGGT | -0.22
98 | AAGTACACGTGTGGAG | 0.08
99 | GTGGGCACGTGTAAGG | -0.06
100 | AAGTGCACGTGCTTTG | -0.08
101 | GGTCTCACGTGTGGTT | 0.29
102 | GTTGGCACGTGAATAG | 0.2
103 | TTTGGCACGTGGGGCA | -0.15
104 | TGTGGCACGTGGGTTC | -0.22
105 | GTACTCACGTGTATGT | 0.13
106 | TAGGGCACGTGGGTTC | -0.28
107 | TAGTGCACGTGAGAAG | 0.1
108 | AATATCACGTGATTGT | 0.14
109 | ATTATCACGTGGTGTA | 0.13
110 | TTGATCACGTGATTTA | 0.24
111 | CTGCGCACGTGCGGGG | -0.33
112 | GTGGGCACGTGGGAGA | -0.1
113 | CTTTGCACGTGAGAAT | 0.26
114 | AGTGACACGTGTGGGA | -0.01
115 | TTCAGCACGTGTTGTA | -0.06
